From article PMC4340293
These are yes or no findings as the source states them, for the method shown. For some of these results: Binding seen in cells or lysates may run through a third protein. Some binding calls cover weakened binding; strength is not graded here. For some of these results: Tags and fused reporters may be left off the sequences shown.

Legend:
[1] = target: T1, 60S acidic ribosomal protein P0 (Os60sP0p), endogenous in rice tissues (rice (endogenous in TP309 tissues)) (UniProt P41095); assay: co-IP; crude protein extract of rice immature endosperm in RIPA buffer; antiserum against OsSec18 or Os60sP0p, Protein A agarose, 4°C; Western blot with antisera against OsSec18, Os60sP0p or Os60sP1p
T1 sequence: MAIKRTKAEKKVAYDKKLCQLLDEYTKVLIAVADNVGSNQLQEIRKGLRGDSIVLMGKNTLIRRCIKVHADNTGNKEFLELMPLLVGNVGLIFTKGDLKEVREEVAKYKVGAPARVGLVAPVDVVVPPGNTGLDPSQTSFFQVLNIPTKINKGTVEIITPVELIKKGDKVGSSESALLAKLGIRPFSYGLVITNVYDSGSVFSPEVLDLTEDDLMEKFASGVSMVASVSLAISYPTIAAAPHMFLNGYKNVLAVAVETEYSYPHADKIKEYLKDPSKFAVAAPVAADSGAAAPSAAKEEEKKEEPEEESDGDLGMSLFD

[2] = target: OsSec18, endogenous in rice tissues (rice (endogenous in TP309 tissues)) (UniProt Q0DGP6); assay: co-IP; crude protein extract of rice leaf
[3] = target: OsSec18, endogenous in rice tissues (rice (endogenous in TP309 tissues)) (UniProt Q0DGP6); assay: co-IP; crude protein extract of rice stem
[4] = target: OsSec18, endogenous in rice tissues (rice (endogenous in TP309 tissues)) (UniProt Q0DGP6); assay: co-IP; crude protein extract of rice immature endosperm in RIPA buffer; antiserum against OsSec18 or Os60sP0p, Protein A agarose, 4°C; Western blot with antisera against OsSec18, Os60sP0p or Os60sP1p
[5] = target: OsSec18, endogenous in rice tissues (rice (endogenous in TP309 tissues)) (UniProt Q0DGP6); assay: SEC; crude protein extract of rice immature endosperm on a Sepharose 300 column; the 290-kDa fraction that held OsSec18 (anti-OsSec18 serum) separated by SDS-PAGE, bands identified by MALDI-TOF mass spectrometry
[6] = target: T2, OsSec18 C-terminus (470-744 aa) (yeast two-hybrid fusion) (rice) (UniProt Q0DGP6); assay: two-hybrid; yeast AH109, constructs in pGBKT7 and pGADT7; growth on SD medium lacking Leu, Trp, His (and Ade)
T2 sequence: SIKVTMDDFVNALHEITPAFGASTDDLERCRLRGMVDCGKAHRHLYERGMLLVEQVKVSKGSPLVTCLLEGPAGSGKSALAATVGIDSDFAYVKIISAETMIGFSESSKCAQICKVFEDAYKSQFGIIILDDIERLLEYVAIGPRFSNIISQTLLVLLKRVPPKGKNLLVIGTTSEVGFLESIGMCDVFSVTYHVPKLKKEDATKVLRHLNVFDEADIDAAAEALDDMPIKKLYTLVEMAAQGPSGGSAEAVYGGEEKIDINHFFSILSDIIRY

[7] = target: T3, OsSec18 N-terminus (1-260 aa) (yeast two-hybrid fusion) (rice) (UniProt Q0DGP6); assay: as above
T3 sequence: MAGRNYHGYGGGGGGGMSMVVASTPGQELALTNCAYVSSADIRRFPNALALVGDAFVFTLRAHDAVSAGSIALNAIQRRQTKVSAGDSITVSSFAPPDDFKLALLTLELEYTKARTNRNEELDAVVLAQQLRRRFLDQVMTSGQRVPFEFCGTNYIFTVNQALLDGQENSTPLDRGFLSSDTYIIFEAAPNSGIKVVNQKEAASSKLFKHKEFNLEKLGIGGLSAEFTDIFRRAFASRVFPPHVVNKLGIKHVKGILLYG

[8] = target: OsSec18, full length (yeast two-hybrid fusion) (rice) (UniProt Q0DGP6); assay: as above

OsSec18, endogenous in rice tissues (from UniProt Q0DGP6 1-743)
binding [1]: binds

B1: 60S acidic ribosomal protein P0 (Os60sP0p), endogenous in rice tissues (protein, UniProt P41095 1-319)
chain: MAIKRTKAEKKVAYDKKLCQLLDEYTKVLIAVADNVGSNQLQEIRKGLRGDSIVLMGKNTLIRRCIKVHADNTGNKEFLELMPLLVGNVGLIFTKGDLKEVREEVAKYKVGAPARVGLVAPVDVVVPPGNTGLDPSQTSFFQVLNIPTKINKGTVEIITPVELIKKGDKVGSSESALLAKLGIRPFSYGLVITNVYDSGSVFSPEVLDLTEDDLMEKFASGVSMVASVSLAISYPTIAAAPHMFLNGYKNVLAVAVETEYSYPHADKIKEYLKDPSKFAVAAPVAADSGAAAPSAAKEEEKKEEPEEESDGDLGMSLFD
binding [2]: no binding (condition: in crude protein extract of leaf)
binding [3]: binds
binding [4]: binds
binding [5]: binds

B2: 60S acidic ribosomal protein P0 (Os60sP0p), full length (yeast two-hybrid fusion) (protein, UniProt P41095 1-319)
chain: MAIKRTKAEKKVAYDKKLCQLLDEYTKVLIAVADNVGSNQLQEIRKGLRGDSIVLMGKNTLIRRCIKVHADNTGNKEFLELMPLLVGNVGLIFTKGDLKEVREEVAKYKVGAPARVGLVAPVDVVVPPGNTGLDPSQTSFFQVLNIPTKINKGTVEIITPVELIKKGDKVGSSESALLAKLGIRPFSYGLVITNVYDSGSVFSPEVLDLTEDDLMEKFASGVSMVASVSLAISYPTIAAAPHMFLNGYKNVLAVAVETEYSYPHADKIKEYLKDPSKFAVAAPVAADSGAAAPSAAKEEEKKEEPEEESDGDLGMSLFD
binding [6]: binds
binding [7]: binds
binding [8]: binds

B3: Os60sP0p N-terminus (1-128 aa) (yeast two-hybrid fusion) (domain or fragment, UniProt P41095 1-128)
chain: MAIKRTKAEKKVAYDKKLCQLLDEYTKVLIAVADNVGSNQLQEIRKGLRGDSIVLMGKNTLIRRCIKVHADNTGNKEFLELMPLLVGNVGLIFTKGDLKEVREEVAKYKVGAPARVGLVAPVDVVVPP
binding [7]: binds
binding [8]: binds

B4: Os60sP0p C-terminus (215-320 aa) (yeast two-hybrid fusion) (domain or fragment, UniProt P41095 215-319)
chain: MEKFASGVSMVASVSLAISYPTIAAAPHMFLNGYKNVLAVAVETEYSYPHADKIKEYLKDPSKFAVAAPVAADSGAAAPSAAKEEEKKEEPEEESDGDLGMSLFD
binding [8]: binds

B5: glutelin type B1 (GLUB1) (yeast two-hybrid fusion) (protein, UniProt P14323 1-499)
chain: MASSVFSRFSIYFCVLLLCHGSMAQLFNPSTNPWHSPRQGSFRECRFDRLQAFEPLRKVRSEAGVTEYFDEKNELFQCTGTFVIRRVIQPQGLLVPRYTNIPGVVYIIQGRGSMGLTFPGCPATYQQQFQQFSSQGQSQSQKFRDEHQKIHQFRQGDIVALPAGVAHWFYNDGDAPIVAVYVYDVNNNANQLEPRQKEFLLAGNNNRAQQQQVYGSSIEQHSGQNIFSGFGVEMLSEALGINAVAAKRLQSQNDQRGEIIHVKNGLQLLKPTLTQQQEQAQAQDQYQQVQYSERQQTSSRWNGLEENFCTIKVRVNIENPSRADSYNPRAGRITSVNSQKFPILNLIQMSATRVNLYQNAILSPFWNVNAHSLVYMIQGRSRVQVVSNFGKTVFDGVLRPGQLLIIPQHYAVLKKAEREGCQYIAIKTNANAFVSHLAGKNSVFRALPVDVVANAYRISREQARSLKNNRGEEHGAFTPRFQQQYYPGLSNESESETSE
binding [8]: no binding

B6: glutelin type A2 (GLUA2) (yeast two-hybrid fusion) (protein, UniProt P07730 1-499)
chain: MASINRPIVFFTVCLFLLCDGSLAQQLLGQSTSQWQSSRRGSPRGCRFDRLQAFEPIRSVRSQAGTTEFFDVSNELFQCTGVSVVRRVIEPRGLLLPHYTNGASLVYIIQGRGITGPTFPGCPETYQQQFQQSGQAQLTESQSQSHKFKDEHQKIHRFRQGDVIALPAGVAHWCYNDGEVPVVAIYVTDINNGANQLDPRQRDFLLAGNKRNPQAYRREVEEWSQNIFSGFSTELLSEAFGISNQVARQLQCQNDQRGEIVRVERGLSLLQPYASLQEQEQGQMQSREHYQEGGYQQSQYGSGCPNGLDETFCTMRVRQNIDNPNRADTYNPRAGRVTNLNSQNFPILNLVQMSAVKVNLYQNALLSPFWNINAHSIVYITQGRAQVQVVNNNGKTVFNGELRRGQLLIVPQHYVVVKKAQREGCAYIAFKTNPNSMVSHIAGKSSIFRALPTDVLANAYRISREEAQRLKHNRGDEFGAFTPLQYKSYQDVYNVAESS
binding [8]: no binding
